In PubChem BioAssay AID624296 (National Center for Advancing Translational Sciences (NCATS), 2012):
About 9,900 (2.8%) of roughly 350,000 compounds were called active. This list was built around the results that the source calls inconclusive (neither active nor inactive); the mix of calls is not that of the screen. Calls come from the whole dose curve; as a rule, active = well fitted activation curve with a large enough effect; inconclusive = small, poorly fitted or top-dose-only effect; inactive = no such curve, though single readings can be large or run the other way. Potencies of inconclusive entries are left out as doubtful fits.

test: A quantitative high throughput screen for small molecules that induce DNA re-replication in MCF 10a normal breast cells.; note: nearly all actives have a fitted effect of over 50% in size; for activity, positive = re-replication: % of control where 0% means no effect; conditions: MCF 10A DNA re-replication, Hoechst nuclear intensity, 48 h; activity, positive = re-replication: at 46.1 µM (top of the series)
Potency is the fitted concentration of half-maximal effect; tags give direction and shape of the fitted curve.

| Structure (SMILES) | Potency | activity, positive = re-replication |
| --- | --- | --- |
| O=C(COc1cccc(Oc2ccccc2)c1)Nc1ccc(SC(F)F)cc1 | active: 0.731 µM |  |
| COc1ccc(Cn2c(-c3ccco3)nc3oc4cc(OC)ccc4c(=O)c3c2=O)cc1 |  | inactive: 2.36% |
| Cc1ccccc1NC(=O)c1ccc(NS(=O)(=O)c2cc(C(C)(C)C)cc(C)c2C)cc1 | inconclusive [activator, single point] |  |
| C(=N\Nc1ccc2ccccc2n1)/c1ccc2c(c1)OCCO2 | active: 23.1 µM |  |
| O=C(NN1C(=O)c2cc(Br)ccc2NC1c1ccccc1Cl)c1ccncc1 (configuration not stated) |  | inactive: 5.97% |
| CC1(C)CC(O)(CCNCc2ccc3c(c2)OCO3)CCO1 (configuration not stated) |  | inactive: 0.532% |
| Cc1ccc2nc(N3CCN(C(=O)c4cccs4)CC3)c(C#N)cc2c1 | inconclusive [activator, partial curve, poor fit] |  |
| CC1CC(C)(C)NC(=S)N1CCC(=O)N1c2ccccc2CC1C (configuration not stated) | inconclusive [activator, partial curve, poor fit] |  |
| CCCCOc1c(Br)cc(CNCCCN2CCOCC2)cc1OC |  | inactive: 13.5% |
| CC(C)c1nccn1S(=O)(=O)c1cc([N+](=O)[O-])ccc1Cl |  | inactive: -7.05% |
| CCN1C(=O)[C@H]2[C@@H](c3ccc(C)cc3)N3C(=O)N(c4ccccc4)C(=O)[C@@]3(C)[C@H]2C1=O | inconclusive [activator, single point] |  |
| O=C(O)c1ccccc1NC(=O)c1cc(-c2ccccc2)nc2ccccc12 | inconclusive [activator, single point] |  |
| CC(C)(C)OC(=O)N1CCCN(C(=O)Nc2ccc(C(F)(F)F)cc2)CC1 |  | inactive: 5.61% |
| COc1ccc(S(=O)(=O)Cc2ccccc2)cc1N | inconclusive [activator, single point] |  |
| CCCN(CCC)C(=O)Cn1c(=O)n(CCCCCC(=O)Nc2ccccc2)c(=O)c2sccc21 | inconclusive [activator, partial curve, poor fit] |  |
| CN(CC(=O)Nc1ccccc1Cl)C(=O)c1ccc(Cl)c(S(=O)(=O)N2CCCCCC2)c1 | inconclusive [activator, single point] |  |
| COc1ccccc1/C=N/NC(=O)NC12CC3CC(CC(C3)C1)C2 | inconclusive [activator, single point] |  |
| Cc1cc(CNC(=O)C(C)n2cc([N+](=O)[O-])cn2)c2ccccc2n1 (configuration not stated) | inconclusive [activator, partial curve] |  |
| N#CC(c1ccc(=O)[nH]n1)c1ccc(Cl)cc1Cl (configuration not stated) | inconclusive [activator, partial curve, poor fit] |  |
| Cc1cc2occ(CC(=O)NCc3cccs3)c2cc1C(C)C |  | inactive: 5.84% |
| O=C(Nc1ccc(S(=O)(=O)Nc2ncccn2)cc1)C12CC3CC(CC(Cl)(C3)C1)C2 |  | inactive: -3.39% |
| CCOC(=O)c1c(NC(=O)CCl)sc(CN(C)C)c1-c1ccccc1 | inconclusive [activator, single point] |  |
| COc1ccc(S(=O)(=O)N2CCOCC2)cc1NC(=O)c1ccncc1 |  | inactive: 0.161% |
| Cc1ccc(-c2nn(C)c(=O)c3ccccc23)cc1CNC(=O)CSc1nc2ccccc2o1 | inconclusive [activator, single point] |  |

| Structure (SMILES) | Potency | activity, positive = re-replication |
| --- | --- | --- |
| O=C(O)c1cccc(N/N=C/c2sc(N3CCOCC3)nc2-c2ccccc2)c1 | inconclusive [activator, single point] |  |
| CCOC(=O)c1c(-c2ccccc2)csc1NC(=O)C1CCCO1 (configuration not stated) |  | inactive: -3.11% |
| Cc1ccc(CN2CCN(c3ccccn3)CC2)s1 | inconclusive [activator, partial curve, poor fit] |  |
| CCCn1c(N)c(N(CCOC)C(=O)c2ccc(F)cc2)c(=O)[nH]c1=O |  | inactive: -5.35% |
| COc1ccc(CC(=O)N2CCC3(CC2)NCCc2[nH]cnc23)cc1 | inconclusive [activator, partial curve, poor fit] |  |
| O=S1(=O)CCOCCCN1Cc1cccc(F)c1 | inconclusive [activator, single point] |  |
| COc1ccc(C2NC(=O)NC3=C2CCc2ccccc23)cc1 (configuration not stated) | inconclusive [activator, single point] |  |
| COc1ccc2oc(=O)c(-c3nnc(NCc4ccco4)s3)cc2c1 | active: 7.31 µM |  |
| O=[N+]([O-])c1ccc(NN=Cc2ccc3c(c2)OCO3)nc1 | inconclusive [activator, partial curve, poor fit] |  |
| O=C(O)c1ccccc1C(=O)NNc1ccc(Cl)cc1 | active: 4.61 µM |  |
| COc1cccc(CNC(=O)CSc2nc3ccc(C)cc3[nH]2)c1 |  | inactive: 3.28% |
| Cc1ccc(C(=O)CCNc2ccc(Br)cc2)o1 | inconclusive [activator, single point] |  |
| Cc1cccn2c(=O)c3cc(C(=O)NCCC4=CCCCC4)n(C)c3nc12 | active: 9.2 µM |  |
| Cn1c(-c2ccco2)nc2cc3ccccc3cc21 | inconclusive [activator, partial curve, poor fit] |  |
| O=C(Cc1cccs1)N/N=C/c1ccccc1 |  | inactive: -0.37% |
| Cc1cccc(NC(=O)c2nc[nH]c2C(=O)N[C@@H](CC(C)C)C(=O)OC(C)(C)C)c1 | inconclusive [activator, single point] |  |
| CC1CCN(S(=O)(=O)c2ccc3c(c2)NC(=O)CS3)CC1 |  | inactive: -10.4% |
| CN(C)C(=S)Nc1cccc(F)c1 |  | inactive: -0.876% |
| COc1ccc(-c2noc(-c3cccc(Cl)c3)n2)cc1OC | inconclusive [activator, single point] |  |
| CCCN(C(=O)COC(=O)COc1c(C)cccc1C)c1c(N)n(Cc2ccccc2)c(=O)[nH]c1=O |  | inactive: 6.39% |
| O=C(C1=C[C@@H](c2csc3ccccc23)C[C@@H](OCCCCO)O1)N1CCN(Cc2ccc3c(c2)OCO3)CC1 | inconclusive [activator, single point] |  |
| COC(=O)C1CCN(C(=O)COC(=O)c2oc3ccccc3c2C)CC1 | inconclusive [activator, single point] |  |
| c1ccc(CSCc2ccccc2)cc1 | inconclusive [activator, full curve, poor fit] |  |
| COc1ccc(C(=O)NCCc2nnc3ccc(SCC(=O)Nc4ccccc4F)nn23)cc1 | inconclusive [activator, single point] |  |

| Structure (SMILES) | Potency | activity, positive = re-replication |
| --- | --- | --- |
| COc1ccc(NC(=O)COc2nsnc2N2CCCCC2)cc1 | inconclusive [activator, single point] |  |
| CCc1cccc2c(C#N)cn(CC(=O)NCCOC)c12 |  | inactive: -0.795% |
| Cc1ccc(C(C)NC(=O)c2cc3ccccc3oc2=O)cc1C (configuration not stated) | inconclusive [activator, single point] |  |
| CSc1nsc(SC)c1NC(=O)OCCc1ccccn1 |  | inactive: 3.31% |
| CCc1ccc(S(=O)(=O)NCc2csc(C)n2)s1 | inconclusive [activator, partial curve, poor fit] |  |
| CN(C)CCCN(C(=O)c1ccc(C(=O)c2ccccc2)cc1)c1nc2cc3c(cc2s1)OCO3 | inconclusive [activator, single point] |  |
| C=CCn1c(SCC(=O)Nc2ccccc2C)nc(O)cc1=O |  | inactive: 6.7% |
| Cc1ccc(N(C)C(=O)c2ccc(CNc3c(N4CCC(C)CC4)c(=O)c3=O)cc2)cc1 |  | inactive: 1.49% |
| CCOc1ccc(NC(=O)Nc2ccc(Cc3ccncc3)cc2)cc1 | inconclusive [activator, single point] |  |
| O=C(NNc1ccc([N+](=O)[O-])cc1)c1ccco1 |  | inactive: 0.649% |
| O=C1N(c2ccccc2)C[C@@H]2C[C@@H](c3cccs3)N3CCC[C@@]123 | active: 5.8 µM |  |
| CCOC(=O)Nc1ccc(C(=O)/C=C/c2ccccc2)cc1 | inconclusive [activator, single point] |  |
| COc1cc(OC)cc(C(=O)NC(C)c2ccc(Br)cc2)c1 (configuration not stated) |  | inactive: -2.47% |
| COCC(C)n1c(SCC(=O)Nc2sccc2C(N)=O)nc2ccccc2c1=O (configuration not stated) | inconclusive [activator, single point] |  |
| Nc1c2c(=O)oc(-c3ccccc3)cc2nn1-c1ccccc1 | inconclusive [activator, partial curve, poor fit] |  |
| CNC(=S)N/N=C/c1ccc(N2CCOCC2)s1 | inconclusive [activator, partial curve, poor fit] |  |
| Cc1cc(C)n(CCN(C)Cc2nc(Cc3ccccc3F)no2)n1 |  | inactive: -1.6% |
| COc1ccc(Br)cc1[C@H]1[C@@H]2C=CCC[C@@]2(C)C(=O)N1Cc1ccccc1 | inconclusive [activator, single point] |  |
| COc1ccc(-c2csc(NC(=O)c3ccccc3F)n2)cc1 |  | inactive: 12.7% |
| COc1ccc(CN(C)CC(=O)Nc2cc3oc4ccccc4c3cc2OC)c(OC)c1 | inconclusive [activator, single point] |  |
| COc1ccc(NC(=O)c2nn(C)c(=O)c3ccccc23)cc1S(=O)(=O)Nc1ccccc1Cl | inconclusive [activator, single point] |  |
| CCN1C(=O)[C@@H]2[C@@H](c3ccc(-c4ccc(F)cc4)c(OC)c3)N3CCC[C@@]3(C(=O)OC)[C@@H]2C1=O |  | inactive: -40.3% |
| COC(=O)[C@]1(Cc2ccccc2)N[C@H](c2ccc(-c3cc(C(C)=O)cs3)cc2)[C@@H]2C(=O)N(C)C(=O)[C@@H]21 |  | inactive: -9.22% |
| CC(=O)Nc1ccc(Nc2nc(-c3sc(C)nc3C)cs2)cc1 | inconclusive [activator, partial curve, poor fit] |  |
